Measurements taken from the supplement of paper PMC4604168 (melanoma cell lines).
The list shows a part of the results. Repeats are few or missing, and single values can be far off.

How the values were obtained:
Experiment in all cases: cell count relative to DMSO control; melanoma cells; higher = more viable cells
Conditions in all cases: library dose: low library concentration; 72 h
[1] = tested on: WM115
[2] = tested on: WM1716
[3] = tested on: WM1745
[4] = tested on: WM3526
[5] = tested on: WM3619
[6] = tested on: WM451Lu
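Note: cell number obtained by counting DAPI-stained nuclei in high-throughput microscope images with image analysis software, screen run in 1,536-well plates.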

| SMILES | cell count [1] [%] | cell count [2] [%] | cell count [3] [%] | cell count [4] [%] | cell count [5] [%] | cell count [6] [%] |
| --- | --- | --- | --- | --- | --- | --- |
| COc1cc(Nc2ncc(F)c(Nc3ccc4c(n3)NC(=O)C(C)(C)O4)n2)cc(OC)c1OC [Tamatinib] + CCCCCCCCCCCC1=C(O)C(=O)C=C(O)C1=O [Embelin] (first compound 0.4 µM, partner dose 1.2 µM) | 89.5 | 92.8 | 77.3 | 59.8 | 100 | 87 |
| CC1(C)NC(=O)N(c2ccc([N+](=O)[O-])c(C(F)(F)F)c2)C1=O [nilutamide] + NC(=O)Nc1cc(-c2cccc(F)c2)sc1C(=O)N[C@H]1CCCNC1 [AZD7762] (first compound 1 µM, partner dose 0.02 µM) | 93.3 | 91.7 | 113 | 54.8 | 77.2 | 80.4 |
| COc1cc(Nc2ncc(F)c(Nc3ccc4c(n3)NC(=O)C(C)(C)O4)n2)cc(OC)c1OC [Tamatinib] + O=C(O)c1ccc(-c2c[nH]c3ncc(-c4ccccc4)cc23)cc1C1CCCC1 [GSK650394] (first compound 0.4 µM, partner dose 0.16 µM) | 94.1 | 92 | 80.3 | 81.6 | 107 | 88.2 |
| C[C@@H]1CCN(C(=O)CC#N)C[C@@H]1N(C)c1ncnc2[nH]ccc12 + COc1cc2ncnc(Nc3ccc(Oc4ccccc4)cc3)c2cc1OC [SrcI1] (first compound 1 µM, partner dose 2 µM) | 112 | 108 | 84.8 | 85.8 | 117 | 114 |
| O=c1[nH]nc(Sc2ncc([N+](=O)[O-])s2)n1-c1ccc2c(c1)OCCO2 + CCN(CC)CCNC(=O)c1c(C)[nH]c(/C=C2\C(=O)Nc3ccc(F)cc32)c1C [sunitinib] (first compound 0.2 µM, partner dose 0.4 µM) | 95.4 | 120 | 96.1 | 129 | 99.5 | 86 |
| COc1cc(Nc2ncc(F)c(Nc3ccc4c(n3)NC(=O)C(C)(C)O4)n2)cc(OC)c1OC [Tamatinib] + CN(NC(=O)CC(=O)NN(C)C(=S)c1ccccc1)C(=S)c1ccccc1 [STA4783] (first compound 0.4 µM, partner dose 0.006 µM) | 71.1 | 67.5 | 39.4 | 97 | 51.1 | 105 |
| O=c1[nH]nc(Sc2ncc([N+](=O)[O-])s2)n1-c1ccc2c(c1)OCCO2 + Cc1cc(Nc2cc(N3CCN(C)CC3)nc(/C=C/c3ccccc3)n2)n[nH]1 [ENMD2076] (first compound 0.2 µM, partner dose 0.04 µM) | 93.3 | 106 | 98.7 | 119 | 129 | 105 |
| Cn1cncc1[C@@](N)(c1ccc(Cl)cc1)c1ccc2c(c1)c(-c1cccc(Cl)c1)cc(=O)n2C [tipifarnib] + Cc1cc([N+](=O)[O-])ccc1NS(=O)(=O)c1cc(Cl)ccc1Cl [FH535] (first compound 0.01 µM, partner dose 1 µM) | 82.3 | 75.7 | 87.1 | 81.2 | 62.9 | 87.9 |
| COc1cc(Nc2ncc(F)c(Nc3ccc4c(n3)NC(=O)C(C)(C)O4)n2)cc(OC)c1OC [Tamatinib] + CO[C@@H]1[C@H](N(C)C(=O)c2ccccc2)C[C@H]2O[C@]1(C)n1c3ccccc3c3c4c(c5c6ccccc6n2c5c31)C(=O)NC4 [Midostaurin] (first compound 0.4 µM, partner dose 0.08 µM) | 64.2 | 57.2 | 53.2 | 70.2 | 66.8 | 87.4 |
| C[C@@H]1CCN(C(=O)CC#N)C[C@@H]1N(C)c1ncnc2[nH]ccc12 + O=c1cc(-c2cccc3c2Sc2ccccc2S3)oc(N2CCOCC2)c1 [KU55933] (first compound 1 µM, partner dose 1 µM) | 93.5 | 95 | 105 | 77.4 | 90.6 | 88.7 |
| O=c1[nH]nc(Sc2ncc([N+](=O)[O-])s2)n1-c1ccc2c(c1)OCCO2 + NC(=O)c1ccc(N(C(N)=O)c2c(F)cccc2F)nc1-c1ccc(F)cc1F [VX702] (first compound 0.2 µM, partner dose 0.4 µM) | 98 | 114 | 87.2 | 80.5 | 125 | 89.4 |
| O=c1[nH]nc(Sc2ncc([N+](=O)[O-])s2)n1-c1ccc2c(c1)OCCO2 + O=C(/C=C/c1cccnc1)NCCCCC1CCN(C(=O)c2ccccc2)CC1 [FK866] (first compound 0.2 µM, partner dose 0.01 µM) | 100 | 87.5 | 89 | 109 | 80.7 | 103 |
| CC1(C)NC(=O)N(c2ccc([N+](=O)[O-])c(C(F)(F)F)c2)C1=O [nilutamide] + CN(C)S(=O)(=O)c1ccc2c(c1)/C(=C/c1cc3c([nH]1)CCCC3)C(=O)N2 [SU6656] (first compound 1 µM, partner dose 0.4 µM) | 73.7 | 115 | 107 | 93.5 | 116 | 82.9 |
| O=C(O)c1ccc(-c2c[nH]c3ncc(-c4ccccc4)cc23)cc1C1CCCC1 + COc1ccc(COc2ccc(Cc3cnc(N)nc3N)cc2OC)cc1 [GW2580] (first compound 0.16 µM, partner dose 1 µM) | 103 | 84 | 88.9 | 93.6 | 96.6 | 84.5 |
| Cn1cncc1[C@@](N)(c1ccc(Cl)cc1)c1ccc2c(c1)c(-c1cccc(Cl)c1)cc(=O)n2C [tipifarnib] + CCc1ccc(CCOc2ccc(CC3SC(=O)NC3=O)cc2)nc1 [pioglitazone] (first compound 0.01 µM, partner dose 2 µM) | 81.2 | 87.2 | 88.7 | 104 | 93.8 | 86.6 |
| Cn1cncc1[C@@](N)(c1ccc(Cl)cc1)c1ccc2c(c1)c(-c1cccc(Cl)c1)cc(=O)n2C [tipifarnib] + Cn1cc(/C=C2\C(=O)Nc3cccnc32)c2ccccc21 [GW441756] (first compound 0.01 µM, partner dose 0.4 µM) | 100 | 87.1 | 88.9 | 96.6 | 93.5 | 83.4 |
| O=C(Nc1cccc(Cl)c1)Nc1ncc(CCNc2ncnc3ccsc23)s1 + COc1ccc(COc2ccc(Cc3cnc(N)nc3N)cc2OC)cc1 [GW2580] (first compound 0.0008 µM, partner dose 1 µM) | 78.1 | 95.6 | 88 | 92.1 | 102 | 101 |
| O=c1[nH]nc(Sc2ncc([N+](=O)[O-])s2)n1-c1ccc2c(c1)OCCO2 + O=S(=O)(c1ccccc1)N(CC(F)(F)F)c1ccc(C(O)(C(F)(F)F)C(F)(F)F)cc1 [T0901317] (first compound 0.2 µM, partner dose 1.4 µM) | 88.2 | 85.9 | 85.7 | 80.3 | 101 | 115 |
| O=C(Nc1cccc(Cl)c1)Nc1ncc(CCNc2ncnc3ccsc23)s1 + COc1cc(N2CCC(N3CCN(C)CC3)CC2)ccc1Nc1ncc(Cl)c(Nc2ccccc2S(=O)(=O)C(C)C)n1 [NVP-TAE684] (first compound 0.0008 µM, partner dose 0.08 µM) | 67.3 | 101 | 80.6 | 98.6 | 93.9 | 103 |
| COc1cc(Nc2ncc(F)c(Nc3ccc4c(n3)NC(=O)C(C)(C)O4)n2)cc(OC)c1OC [Tamatinib] + CC1(C)NC(=O)N(c2ccc([N+](=O)[O-])c(C(F)(F)F)c2)C1=O [nilutamide] (first compound 0.4 µM, partner dose 1 µM) | 89.2 | 91.7 | 67.6 | 77.3 | 110 | 116 |
| CC1(C)NC(=O)N(c2ccc([N+](=O)[O-])c(C(F)(F)F)c2)C1=O [nilutamide] + C[C@@H]1CCN(C(=O)CC#N)C[C@@H]1N(C)c1ncnc2[nH]ccc12 [CP690550] (first compound 1 µM, partner dose 1 µM) | 107 | 101 | 93.4 | 86.6 | 112 | 49.2 |
| Cn1cncc1[C@@](N)(c1ccc(Cl)cc1)c1ccc2c(c1)c(-c1cccc(Cl)c1)cc(=O)n2C [tipifarnib] + O=C(O)c1ccc(-c2c[nH]c3ncc(-c4ccccc4)cc23)cc1C1CCCC1 [GSK650394] (first compound 0.01 µM, partner dose 0.16 µM) | 87.7 | 75.5 | 88.3 | 103 | 87.9 | 82.1 |
| O=c1[nH]nc(Sc2ncc([N+](=O)[O-])s2)n1-c1ccc2c(c1)OCCO2 + CC(C)CCN1c2nc(Nc3cc(F)c(O)c(F)c3)ncc2N(C)C(=O)C1C [BID1870] (first compound 0.2 µM, partner dose 0.2 µM) | 102 | 109 | 106 | 88 | 100 | 90.2 |
